In all, about 48,000 compounds went through this assay and about 120 (0.25%) were called active. Another 4% or so got no clear call; they are omitted. Calls follow the shape of the dose curve; as a rule, active = well fitted activation curve with a large enough effect; inconclusive = small, poorly fitted or top-dose-only effect, or another doubt; inactive = no such curve, though single readings can be large or run the other way. The list shows a part of the results.

This test can be described thus: Primary qHTS for Identification of Small Molecule Activators of Huntingtin-Antisense Promoter Activity. Also: nearly all actives have a fitted effect of over 55% in size. To be noted: HEK293 HTT-AS promoter firefly luciferase reporter, 24 h; series mostly up to 57.5 µM; activity change, positive = activation: at the top concentration. In a few lines:
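Quantitative HTS used concentration series of up to 57.5 uM final on HEK293 luciferase reporter cells, 24 h at 37 degrees C. Readout was Dual-Glo firefly luminescence.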
In general terms: qHTS replaces the single test concentration by a dilution series.
Consider `Cc1ccc(NC(=O)c2sc3ncnc(N(C)C4CCCCC4)c3c2C)c(C)c1`, for which the “activity change, positive = activation” value was inactive: -5.53%.

For the molecule `Cc1ccccc1OCC(=O)Nc1c(C(=O)Nc2ccccc2F)oc2ccccc12`, the “activity change, positive = activation” value is inactive: -3.29%.

With `CCOc1ccc(NC(=O)N2CC3CCCN3c3ccccc32)cc1` (stereo unspecified), the “activity change, positive = activation” value was inactive: -31.9%.

As for `CC(=O)NNc1ncnc2c1cnn2-c1ccccc1`, the “activity change, positive = activation” value is inactive: 6.74%.

Consider `COC(=O)c1cnc(N2CCN(c3ccc(OC)cc3)CC2)c2ccccc12`, for which the “activity change, positive = activation” value was inactive: -10.9%.

Turning to `Cc1ccccc1NS(=O)(=O)c1ccc2[nH]cc(C(=O)NCCc3ccccc3)c(=O)c2c1`, the “activity change, positive = activation” value was inactive: -18.1%.

Take `O=C(O)/C=C(\CC(=O)O)C(=O)O`: the “activity change, positive = activation” value was inactive: 2.37%.

Turning to `CCN1CCN(c2ccc(Nc3cc(N(C)C(=O)Nc4c(Cl)c(OC)cc(OC)c4Cl)ncn3)cc2)CC1`, the “activity change, positive = activation” value was inactive: 1.26%.

On to `COc1ccc(CNC(=O)Cn2c(=O)n3nc(-c4ccc(OC)cc4)nc3c3ccccc32)cc1`, for which the “activity change, positive = activation” value was inactive: 15.8%.

Take `CC(=O)c1cccc(NS(=O)(=O)c2ccc3[nH]c4c(c3c2)CCCCC4)c1`: the “activity change, positive = activation” value was inactive: -75.2%.

As to `COc1ccc(-c2noc(CSc3nnc(C)n3-c3ccc(F)cc3)n2)cc1`, the “activity change, positive = activation” value is inactive: -22%.

Take `Cc1cn2c(=O)c(S(=O)(=O)Nc3ccc(OC(F)(F)F)cc3)c(C)nc2s1`: the “activity change, positive = activation” value is inactive: -42.2%.

For the molecule `COc1ccc(NC(=O)C(c2ccccc2)N(C)C(=O)/C=C\c2ccc3c(c2)OCO3)cc1` (stereo unspecified), the “activity change, positive = activation” value is inactive: -12.7%.

`COc1ccc(-c2c(C)nn3c(C(F)(F)F)cc(-c4ccc(C)cc4)nc23)cc1`: the “activity change, positive = activation” value is inactive: -12.6%.

For `COc1cc(OC)c(NC(=O)Nc2ccc3c(c2)N(C)C(=O)c2ccccc2S3)cc1Cl`, the “activity change, positive = activation” value is inactive: -23.8%.

As for `Cc1ccc(-c2onc(C)c2C)cc1S(=O)(=O)N1CCN(c2ccccc2F)CC1`, the “activity change, positive = activation” value was inactive: -16.6%.

`COc1cc(OC)cc(-n2c(=O)c3sccc3n(Cc3ccc(F)cc3)c2=O)c1`: the “activity change, positive = activation” value was inactive: 3.7%.

Turning to `CCn1c2ccccc2c2cc(CN3CCN(Cc4cccc(Cl)c4)CC3)ccc21`, the “activity change, positive = activation” value was inactive: -22.8%.

On to `CCOc1ccccc1CNC(=O)c1ccc(-n2c(C)cc3c2CCC(C)C3)cc1` (stereo unspecified), for which the “activity change, positive = activation” value is inactive: 3.84%.

For `COC(=O)c1ccccc1NC(=O)CCCn1nc(C)c2c(C)n(-c3ccccc3)nc2c1=O`, the “activity change, positive = activation” value was inactive: 0.925%.

In the case of `Cc1ccc(C(=O)O)cc1NC(=O)c1nsc2ccccc12`, the “activity change, positive = activation” value was inactive: 5.56%.

`Cc1ccc(Cl)cc1N1CCN(c2nc3ccccc3c3nc(-c4cccnc4)nn23)CC1`: the “activity change, positive = activation” value was inactive: -12.4%.

`COc1ccc(CCNC(=O)CN2C(=O)COc3ccc(S(=O)(=O)N4CCCC4)cc32)cc1OC`: the “activity change, positive = activation” value was inactive: -12.7%.

On to `Cc1ccc(CNC(=O)c2cc(-c3ccc(C)c(C)c3)nc3ccccc23)cc1`, for which the “activity change, positive = activation” value was inactive: 8.27%.

As for `COC(=O)c1sc(N2C(=O)c3oc4ccc(C)cc4c(=O)c3C2c2ccc(OC)cc2)nc1C` (stereo unspecified), the “activity change, positive = activation” value is inactive: -14.6%.

Turning to `Cc1cc(Cl)ccc1NC(=O)CSc1nc2c(c(=O)[nH]1)CCC2`, the “activity change, positive = activation” value was inactive: -21.4%.

For `Cc1ccc(NC(=O)C(=O)NCC(c2cccnc2)N2CCN(Cc3ccccc3)CC2)cc1Cl` (stereo unspecified), the “activity change, positive = activation” value is inactive: -13%.

As to `CCOC(=O)c1ccc(NC(=O)CS(=O)(=O)Cc2nc(-c3ccc(C)cc3)oc2C)cc1`, the “activity change, positive = activation” value was inactive: -24.2%.

Consider `CCCCc1ccc(NC(=O)CSc2nc3ccccc3nc2N2CCCCC2)cc1`, for which the “activity change, positive = activation” value was inactive: -10.3%.

On to `COC(=O)c1c(-c2ccc(Cl)cc2)noc1N1CCN(c2ccc(C(C)=O)cc2)CC1`, for which the “activity change, positive = activation” value was inactive: -1.07%.

Take `CCCNC(=O)CCc1c(C)nc2nc(CNC(=O)c3ccccc3)nn2c1C`: the “activity change, positive = activation” value is inactive: 3.32%.

On to `CCOc1ccc(NC(=O)C(CC)n2nc(C)c3c(C)n(-c4ccccc4)nc3c2=O)cc1` (stereo unspecified), for which the “activity change, positive = activation” value is inactive: -14.6%.

Regarding `Cc1ccc(F)cc1NC(=O)CSc1nc(-c2cccs2)cc(C(F)(F)F)n1`, the “activity change, positive = activation” value is inactive: -16.4%.

For `Cc1ccc(NC(=O)CN2C(=O)CC(c3ccco3)Sc3ccccc32)cc1Cl` (stereo unspecified), the “activity change, positive = activation” value was inactive: -26.3%.

Consider `COc1ccc(NC(=O)c2oc3ccccc3c2NC(=O)c2cc3ccccc3o2)c(OC)c1`, for which the “activity change, positive = activation” value was inactive: -4.45%.

Consider `CC1CCN(S(=O)(=O)c2ccc3c(c2)c(=O)c(C(=O)N2CCN(c4cccc(Cl)c4)CC2)cn3C)CC1`, for which the activity change, positive = activation was inactive: 1.86% [at 11.5 µM, percent change from vehicle, -100% = no light].

For `Cc1ccc(-n2ncc(C(=O)NCCN3CCc4ccccc4C3)c2C2CCN(C(=O)OC(C)(C)C)CC2)cc1C`, the “activity change, positive = activation” value is inactive: -41.5%.

For `COc1ccc(NC(=O)CN2CCN(CC(=O)Nc3ccccc3F)CC2)c(OC)c1`, the “activity change, positive = activation” value was inactive: -13.4%.

`COc1ccc(S(=O)(=O)c2c(Nc3cccc(C)c3C)sc(C(=O)c3ccccc3)c2N)cc1`: the “activity change, positive = activation” value is inactive: -31.4%.

For `Cc1cccc(C)c1NC(=O)CN1CCN(CCCC(c2ccc(F)cc2)c2ccc(F)cc2)CC1`, the “activity change, positive = activation” value was inactive: -32%.

In the case of `CCOC(=O)c1c(C)oc2nc(C)nc(NCCc3ccc(OCC)c(OCC)c3)c12`, the “activity change, positive = activation” value is inactive: -31%.

For the molecule `COC(=O)c1ccc(NC(=O)CSc2cn(CC(=O)N3CCCCC3)c3ccccc23)cc1`, the “activity change, positive = activation” value is inactive: -16.8%.

Regarding `COc1ccc(N2CCN(c3ncnc4c3cnn4-c3ccc(F)cc3)CC2)cc1`, the “activity change, positive = activation” value was inactive: 16%.

On to `CC1CCN(C(c2ccccc2)c2sc3nc(-c4ccco4)nn3c2O)CC1` (stereo unspecified), for which the “activity change, positive = activation” value was inactive: -5.99%.

For `COc1ccc(CNS(=O)(=O)c2cc3c(cc2Cl)N(C(C)=O)CCO3)cc1`, the “activity change, positive = activation” value is inactive: -5.89%.

With `O=C(CSc1nc(-c2ccccc2)cn1-c1ccccc1F)Nc1ccc(F)cc1`, the “activity change, positive = activation” value was inactive: -10.8%.

These data come from PubChem BioAssay AID1508624 (National Center for Advancing Translational Sciences (NCATS), 2021).
